Assay results taken from the RNAGym collection of RNA variant scans (doi:10.1093/nar/gkz1192).
The source gives no read counts; variants with many changes may rest on few reads.

B1: CPEB3 Ribozyme (parent)
chain: UAACAGGGGGCCACAGCAGAAGCGUUCACGUCGCAGCCCCUGUCAGAUUCUGGUGAAUCUGCGAAUUCUGCUGUAUAUCUC

Variants of: B1
Test: self-cleavage, relative activity (ratio to wild type); higher = more cleavage; in vitro, sequencing
Outline: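 After error-prone PCR and barcoding, CPEB3 ribozyme mutant libraries were transcribed with T7 RNA polymerase at 37°C for 5 hours, then given 15 min with DNase I before an EDTA stop, and they cleaved during both steps. Reverse transcription with template switching preceded Illumina sequencing. Relative activity divides a variant's cleaved/total read fraction by the unmutated ribozyme's. At least 5 reads were required per variant, and three batches were averaged.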

Row | Variant | self-cleavage
1 | A13G A15G A20G U41A A47G U58C A75C | 0.39
2 | A13G A15G U41C C71U U78A | 0.14
3 | A13G A20G C40U A65G U76A A77U | 0.04
4 | A13G A18U U25C A47G A57G | 0.38
5 | A13G A20U U43A | 0.23
6 | A13G A28G C68A | 0.27
7 | A13G C38U U43C U54C | 0.18
8 | A13G A20G A77U | 0.61
9 | A13G A18C C29U G52U | 0.14
10 | A13G C27A C32U C37U U58C | 0.04
11 | A13G C50A U66C U69C | 0.19
12 | A13G C50A A57G U72C | 0.51
13 | A13G A18C A20G | 0.05
14 | A13G A18U A20G U25C A45C | 0.09
15 | A13G A28G U49C A56U | 0.16
16 | A13G A18G U25C G30U U41C A75U | 0.04
17 | A13G C14A G33U G55C A77U | 0.06
18 | A13C U43C A65G C68U | 0.24
19 | A13G A18G C50G | 0.08
20 | A13G A21G A75U | 0.26
21 | A13G A21G U51C A77G | 0.29
22 | A13C U43C A56G U58C U69C | 0.11
23 | A13G C23U U25C | 0.24
24 | A13G C38U C40U A47G U48C G52C U60A | 0.13

Row | Variant | self-cleavage
25 | A13G A28U U48C U72A U80A | 0.15
26 | A13G A21G U31G A47G | 0.11
27 | A13G C40G U43C U80A | 0.11
28 | A13G G16U G24A A28U | 0.6
29 | A13G A15U U26C U60C A64G U72C | 0.12
30 | A13G A45U A77G | 0
31 | A13G A20G U67C | 0.68
32 | A13G A45G U58C A64G | 0.08
33 | A13G A35C U49C C62U U74A C79U | 0.11
34 | A13G A21G U69C A77G | 0.09
35 | A13G C17G C40A U43A A64U A77U | 0.15
36 | A13G A35U U69A U72C | 0.15
37 | A13G C34U A35G U41A U48C A56G U67C | 0.12
38 | A13G G16A A18G | 0.45
39 | A13G A18U U25C U26A A45G | 0.31
40 | A13G A15U U26C G52A U60C | 0.07
41 | A13G C38A C50A U66C U67C C68U U80C | 0.2
42 | A13G A21G A28U A56G C59G A64G | 0.13
43 | A13G A21G U31A A35G U48C U72C | 0.08
44 | A13G C32A C34U A45U U76A | 0.13
45 | A13G A15G U69C U72C | 0.29
46 | A13G A20U A35G U43A U51C | 0.37
47 | A13G A18U U48C U54A A56G | 0.14
48 | A13G A35G U58C G61A C71U | 0.1

Row | Variant | self-cleavage
49 | A13G A18G U54C A65G U69A | 0.11
50 | A13G A18G A45U A57G U60C U80C | 0.03
51 | A13G A28G U51A U80C | 0.2
52 | A13G A18G A28U U43A | 0.19
53 | A13G C23U C40U C44A C50G U51C U69A | 0.16
54 | A13G A20G G24A | 0.39
55 | A13G A20G A21G A28U U72A | 0.44
56 | A13G A15U A21G G22A A57G U72G | 0.14
57 | A13G A45C G55A | 0.09
58 | A13G A21G U26G A56U | 0.22
59 | A13G C14U A20G U43C A64U U69A | 0.14
60 | A13G A35U A75G | 0.58
61 | A13G A18G U26C U41A U51C U74C U78A | 0
62 | A13G A35U A56U A64U | 0.06
63 | A13G C17U A20G U26C A35G G52C | 0.37
64 | A13G A47G A64G U72G | 0.24
65 | A13G A21G C40G U60A U78C | 0.05
66 | A13G C23G A47G U60C G61A U66A U76G | 0.04
67 | A13G A18G A45U U60C U80C | 0.3
68 | A13G A18U A64U U72C | 0.16
69 | A13G C32U C34U U67A | 0.34
70 | A13G A35U U41C G46U U60C U78C U80C | 0.07
71 | A13G A15G A21G A35U U67C A77G | 0.18
72 | A13G A15G A28G A45G | 0.51

Row | Variant | self-cleavage
73 | A13G A21G A28U | 0.36
74 | A13G C23U A65U | 0.19
75 | A13G A28G C37A U58A U60C U80G | 0.04
76 | A13G G16A A28G | 0.02
77 | A13G A21G G33U G55A A77G | 0.13
78 | A13G G19C A20G U51C U72C U76C A77C | 0.14
79 | A13G A21U U43C U72C | 0.06
80 | A13G C59U U60A U67C | 0.12
81 | A13G C17U G33A A35G A47G | 0.06
82 | A13G A45G U51C | 0.68
83 | A13G G19C A77G | 0.25
84 | A13G A56U U60C U80C | 0.17
85 | A13G A47G U51A | 0.67
86 | A13G A15G U67A U78A | 0.1
87 | A13G A15G A56G U76A U80C | 0.37
88 | A13G A18G U25A A45G U76C | 0.07
89 | A13G C27A U78A | 0.3
90 | A13G A20G C37U U49A A56G U60C A65C | 0.11
91 | A13G A15G A20C U54A | 0.49
92 | A13G A18G U25G U26C | 0.4
93 | A13G A18U A28U U80A | 0.21
94 | A13G A18G A56G U60A U76A | 0.16
95 | A13G A20G A28G U51C A56G U72C A77U | 0.13
96 | A13G G24A U25C U41C | 0.21

Row | Variant | self-cleavage
97 | A13G A21G A28G C29U U43C U72A U78C | 0.01
98 | A13G A21G G24C C59A G61C U78C U80C | 0.07
99 | A13G C29U U72C | 0.21
100 | A13G A45C G52A | 0.23
101 | A13G A21G U41C | 0.42
102 | A13G G19U U25C U48C U51C U80C | 0.05
103 | A13G A20G A56G U78C | 0.48
104 | A13G A47G U49C A57G U78G | 0.33
105 | A13G C40A A45G | 0.06
106 | A13G A21G A28G C39G A77G | 0.05
107 | A13G A28U U41A G55C | 0.1
108 | A13G C62U U69A U78C | 0.19
109 | A13G C50A U54C U69A | 0.13
110 | A13G A56G U58C U74A A75G | 0.23
111 | A13G C32U U58A | 0.06
112 | A13G A21U U31C U41C U72A U80C | 0.38
113 | A13G A18G U43A U66C U78G | 0.26
114 | A13G A18G U43C | 0.13
115 | A13G A45G U60C | 1.11
116 | A13G A20U U31C U67C | 0.14
117 | A13G A56G C68G A75G U78C | 0.08
118 | A13G A15U A35U C44A A75U | 0.21
119 | A13G C34U U43C U60G U74A A77G | 0.09
120 | A13G C27U C40U U49C U54C G63A U72C | 0.05

Row | Variant | self-cleavage
121 | A13G C23U C27A | 0.24
122 | A13G A15G A45G U49C | 0.43
123 | A13G A21G C44U A57G | 0.04
124 | A13G A18G G46U A47U | 0.22
125 | A13G A47U U78C | 0.28
126 | A13G A21G U25C U66C | 0.35
127 | A13G A20G A28U U48C U69A | 0.05
128 | A13G C38U U51C U54A A64U U66G U72A | 0.18
129 | A13G C39A U51C | 0.16
130 | A13G C17U C27U U80A | 0.21
131 | A13G G24A U31C U43C U48C G73A | 0.03
132 | A13G A18G A21G U25C | 0.45
133 | A13G C14A U25C | 0.07
134 | A13G A21G U43G U48C U60A | 0.18
135 | A13G A18G U66C | 0.33
136 | A13G A15U A35G C40A A45C U72C | 0.03
137 | A13G C34G U66C | 0.06
138 | A13G A20U C39A | 0.21
139 | A13G A57U A75G U78C | 0.3
140 | A13G A20G C23U C38U U74C | 0.09
141 | A13G G19A U43C | 0.1
142 | A13G C37G U43A A56U U72A U76A | 0.11
143 | A13G A20U U25C C37A | 0.08
144 | A13G A21G U49C | 0.27

Row | Variant | self-cleavage
145 | A13G A20G A21G G22C U26C | 0.05
146 | A13G C17G U49A U72C | 0.07
147 | A13G A21G A47G U72C | 0.45
148 | A13G A15G A35U U41C A47G U72A | 0.33
149 | A13G A64U A77C | 0.23
150 | A13G A28U A45G U54C G55A U76G | 0.09
151 | A13G A75U U80C | 1
152 | A13G A56G U69A U78G | 0.32
153 | A13G A65G U72C | 0.1
154 | A13G C44A A56U | 0.11
155 | A13G G16C A64G | 0.09
156 | A13G A20G G46U A56U | 0.11
157 | A13C U54C U69A | 0.13
158 | A13G A57G U69C A75G | 0.15
159 | A13G A35G U72A | 0.15
160 | A13G A18G A20G U31C | 0.51
161 | A13G A18U A28U U66C | 0.1
162 | A13G A21U U43C U54C U60C | 0.19
163 | A13G C37G U41C C50A U80C | 0.24
164 | A13G A28G U49A | 0.07
165 | A13G C44U A45G | 0.2
166 | A13C U60A A64G | 0.49
167 | A13G A28G C37G U67C U78C | 0.05
